Experimental data published in patent US8129380B2, “Phthalazinone derivatives” (AstraZeneca AB, priority 2008, dated 2012).

These compounds were tested against Mammalian PARP, isolated from Hela cell nuclear extract (Homo sapiens, UniProt P09874) (assay: PARP inhibitory action (FlashPlate 3H-NAD assay)). Details: 30° C., NAD 5 μM.
Format: biochemical
Method: In order to assess the inhibitory action of the compounds, the following assay was used to determine IC50 values.
The total assay volume per well was 40 μl.
After 10 minutes incubation at 30° C. the reactions were initiated by the addition of a 10 μl reaction mixture, containing NAD (5 μM), ^3H-NAD and 30 mer double stranded DNA-oligos. Designated positive and negative reaction wells were done in combination with compound wells (unknowns) in order to calculate % enzyme activities. The plates were then shaken for 2 minutes and incubated at 30° C. for 45 minutes.
Following the incubation, the reactions were quenched by the addition of 50 μl 30% acetic acid to each well. The plates were then shaken for 1 hour at room temperature.
The plates were transferred to a TopCount NXT (TRADE MARK) (Packard, UK) for scintillation counting. Values recorded are counts per minute (cpm) following a 30 second counting of each well.
The % enzyme activity for each compound is then calculated using the following equation: […]
IC50 values (the concentration at which 50% of the enzyme activity is inhibited) were calculated, which are determined over a range of different concentrations, normally from 10 μM down to 0.001 μM. Such IC50 values are used as comparative values to identify increased compound potencies.

UniProt P09874, sequence (P09874 whole entry): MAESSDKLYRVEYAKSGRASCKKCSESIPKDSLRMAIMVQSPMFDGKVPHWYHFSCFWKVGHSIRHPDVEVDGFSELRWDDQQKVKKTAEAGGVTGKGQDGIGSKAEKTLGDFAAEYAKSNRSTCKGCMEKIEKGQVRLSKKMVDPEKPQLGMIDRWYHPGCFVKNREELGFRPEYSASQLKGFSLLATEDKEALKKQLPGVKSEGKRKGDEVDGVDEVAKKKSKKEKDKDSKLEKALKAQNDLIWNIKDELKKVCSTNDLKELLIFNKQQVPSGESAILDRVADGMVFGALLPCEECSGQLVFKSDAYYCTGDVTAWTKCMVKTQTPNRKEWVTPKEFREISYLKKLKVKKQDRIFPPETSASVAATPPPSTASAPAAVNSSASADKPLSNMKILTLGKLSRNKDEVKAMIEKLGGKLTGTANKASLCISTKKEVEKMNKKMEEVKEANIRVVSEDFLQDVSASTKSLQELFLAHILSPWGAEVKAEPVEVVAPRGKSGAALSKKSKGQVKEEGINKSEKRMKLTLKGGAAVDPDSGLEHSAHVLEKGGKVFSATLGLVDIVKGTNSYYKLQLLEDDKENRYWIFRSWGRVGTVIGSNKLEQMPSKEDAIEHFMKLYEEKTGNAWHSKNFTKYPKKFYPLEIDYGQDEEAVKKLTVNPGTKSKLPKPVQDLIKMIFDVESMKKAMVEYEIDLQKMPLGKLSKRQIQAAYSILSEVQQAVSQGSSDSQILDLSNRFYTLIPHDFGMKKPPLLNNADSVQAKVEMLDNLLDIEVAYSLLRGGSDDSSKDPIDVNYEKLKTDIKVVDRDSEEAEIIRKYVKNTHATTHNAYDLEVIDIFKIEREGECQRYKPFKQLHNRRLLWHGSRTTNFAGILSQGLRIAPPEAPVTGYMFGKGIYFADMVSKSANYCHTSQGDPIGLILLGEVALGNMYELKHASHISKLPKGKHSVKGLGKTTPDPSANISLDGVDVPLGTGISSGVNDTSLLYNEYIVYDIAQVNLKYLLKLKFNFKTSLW

Row | Compound | IC50
1 | O=C(c1cc(Cc2n[nH]c(=O)c3ccccc23)ccn1)N1CCC(Oc2ccc(F)cc2)CC1 [Compound 6b] | 7 nM
2 | O=C(c1cc(Cc2n[nH]c(=O)c3ccccc23)ccn1)N1CCC(OC2CCCC2)CC1 [Compound 40, 4-((2-(4-(cyclopentyloxy)piperidine-1-carbonyl)pyridin-4-yl)methyl)phthalazin-1(2H)-one] | 6 nM
3 | CC(C)COC1CCN(C(=O)c2cccc(Cc3n[nH]c(=O)c4c(F)ccc(F)c34)c2)CC1 [Compound 4c] | 16 nM
4 | CC(C)(C)OC1CCN(C(=O)c2cc(Cc3n[nH]c(=O)c4ccccc34)ccc2F)CC1 [Compound 70, 4-(3-(4-tert-butoxypiperidine-1-carbonyl)-4-fluorobenzyl)phthalazin-1(2H)-one] | 6 nM
5 | O=C(c1cc(Cc2n[nH]c(=O)c3ccccc23)ccn1)N1CCC(Oc2ccccc2)CC1 [Compound 6d] | 7 nM
6 | COC1CCN(C(=O)c2cc(Cc3n[nH]c(=O)c4cc(Cl)c(Cl)cc34)ccc2F)CC1 [Compound 65, 6,7-dichloro-4-(4-fluoro-3-(4-methoxypiperidine-1-carbonyl)benzyl)phthalazin-1(2H)-one] | 40 nM
7 | COC1CCN(C(=O)c2cc(F)cc(Cc3n[nH]c(=O)c4cccc(Cl)c34)c2)CC1 [Compound 129b, 5-chloro-4-(3-fluoro-5-(4-methoxypiperidine-1-carbonyl)benzyl)phthalazin-1(2H)-one] | 23 nM
8 | CCOC1CCN(C(=O)c2cc(F)cc(Cc3n[nH]c(=O)c4cccc(Cl)c34)c2)CC1 [Compound 129a, 5-chloro-4-(3-(4-ethoxypiperidine-1-carbonyl)-5-fluorobenzyl)phthalazin-1(2H)-one] | 4 nM
9 | COc1ccc(OC2CCN(C(=O)c3cc(Cc4n[nH]c(=O)c5ccccc45)ccc3F)CC2)cc1 [Compound 8b, 4-[[4-fluoro-3-[4-(4-methoxyphenoxy)piperidine-1-carbonyl]phenyl]methyl]-2H-phthalazin-1-one] | 2 nM
10 | O=C(c1cc(Cc2n[nH]c(=O)c3ccccc23)ccc1F)N1CCC(Oc2ccccn2)CC1 [Compound 2i] | 4 nM
11 | CC(C)(C)OC1CCN(C(=O)c2cccc(Cc3n[nH]c(=O)c4ccccc34)c2)CC1 [Compound 71, 4-[[3-[4-[(2-methylpropan-2-yl)oxy]piperidine-1-carbonyl]phenyl]methyl]-2H-phthalazin-1-one] | 9 nM
12 | O=C(c1cc(Cc2n[nH]c(=O)c3ccccc23)ccc1F)N1CCC(Oc2cnccn2)CC1 [Compound 26d] | 6 nM
13 | O=C(c1cc(Cc2n[nH]c(=O)c3ccccc23)ccc1F)N1CCC(OC2CCCC2)CC1 [Compound 36, 4-(3-(4-(cyclopentyloxy)piperidine-1-carbonyl)-4-fluorobenzyl)phthalazin-1(2H)-one] | 4 nM
14 | CCOC1CCN(C(=O)c2cc(Cc3n[nH]c(=O)c4cccc(Cl)c34)ccc2F)CC1 [Compound 104b, 5-chloro-4-(3-(4-ethoxypiperidine-1-carbonyl)-4-fluorobenzyl)phthalazin-1(2H)-one] | 7 nM
15 | COC1CCN(C(=O)c2cc(Cc3n[nH]c(=O)c4ccccc34)ccn2)CC1 [Compound 6c] | 16 nM
16 | COC1CCN(C(=O)c2cc(Cc3n[nH]c(=O)c4c(N)cccc34)ccc2F)CC1 [Compound 35a, 8-amino-4-(4-fluoro-3-(4-methoxypiperidine-1-carbonyl)benzyl)phthalazin-1(2H)-one] | 479 nM
17 | N#Cc1nccnc1OC1CCN(C(=O)c2cc(Cc3n[nH]c(=O)c4ccccc34)ccc2F)CC1 [Compound 26l] | 5 nM
18 | O=C(O)COC1CCN(C(=O)c2cc(Cc3n[nH]c(=O)c4ccccc34)ccc2F)CC1 [Compound 90, 2-(1-(2-fluoro-5-((4-oxo-3,4-dihydrophthalazin-1-yl)methyl)benzoyl)piperidin-4-yloxy)acetic acid] | 9 nM

Row | Compound | IC50
19 | O=C(c1cc(Cc2n[nH]c(=O)c3ccccc23)ccc1F)N1CCC(Oc2ccncc2)CC1 [Compound 2j] | 5 nM
20 | O=C(c1cc(Cc2n[nH]c(=O)c3ccccc23)ccc1F)N1CCC(Oc2ccc(F)cc2)CC1 [Compound 2c] | 4 nM
21 | N#Cc1ccc(OC2CCN(C(=O)c3cc(Cc4n[nH]c(=O)c5ccccc45)ccc3F)CC2)nc1 [Compound 26c] | 3 nM
22 | O=C(c1cc(Cc2n[nH]c(=O)c3ccccc23)ccc1F)N1CCC(OC(F)F)CC1 [Compound 19, 4-(3-(4-(difluoromethoxy)piperidine-1-carbonyl)-4-fluorobenzyl)phthalazin-1(2H)-one] | 5 nM
23 | CCOC1CCN(C(=O)c2cccc(Cc3n[nH]c(=O)c4c(C)[nH]c(C)c34)c2)CC1 [Compound 52b, 4-(3-(4-ethoxypiperidine-1-carbonyl)benzyl)-5,7-dimethyl-2,6-dihydro-1H-pyrrolo[3,4-d]pyridazin-1-one] | 55 nM
24 | O=C(c1cc(Cc2n[nH]c(=O)c3ccccc23)ccc1F)N1CCC(Oc2ncccn2)CC1 [Compound 26e] | 6 nM
25 | CC1(O)CCN(C(=O)c2cc(Cc3n[nH]c(=O)c4ccccc34)ccc2F)CC1 [Compound 74, 4-(4-fluoro-3-(4-hydroxy-4-methylpiperidine-1-carbonyl)benzyl)phthalazin-1(2H)-one] | 8 nM
26 | O=C(c1cc(Cc2n[nH]c(=O)c3ccccc23)ccn1)N1CCC(Oc2ccncc2)CC1 [Compound 6e] | 10 nM
27 | Cc1cccnc1OC1CCN(C(=O)c2cc(Cc3n[nH]c(=O)c4ccccc34)ccc2F)CC1 [Compound 72a, 4-[[4-fluoro-3-[4-(3-methylpyridin-2-yl)oxypiperidine-1-carbonyl]phenyl]methyl]-2H-phthalazin-1-one] | 664 nM
28 | C=CCOC1CCN(C(=O)c2cc(Cc3n[nH]c(=O)c4ccccc34)ccc2F)CC1 [Compound 16] | 6 nM
29 | COC1CCN(C(=O)c2cc(Cc3n[nH]c(=O)c4c(C)n(C)c(C)c34)ccc2F)CC1 [Compound 60, 4-(4-fluoro-3-(4-methoxypiperidine-1-carbonyl)benzyl)-5,6,7-trimethyl-2,6-dihydro-1H-pyrrolo[3,4-d]pyridazin-1-one] | 26 nM
30 | COc1cccc(OC2CCN(C(=O)c3cc(Cc4n[nH]c(=O)c5ccccc45)ccc3F)CC2)c1 [Compound 8a, 4-[[4-fluoro-3-[4-(3-methoxyphenoxy)piperidine-1-carbonyl]phenyl]methyl]-2H-phthalazin-1-one] | 3 nM
31 | CC(C)COC1CCN(C(=O)c2cc(Cc3n[nH]c(=O)c4ccccc34)ccc2F)CC1 [Compound 2h] | 4 nM
32 | Cc1ccc(OC2CCN(C(=O)c3cc(Cc4n[nH]c(=O)c5ccccc45)ccc3F)CC2)nc1 [Compound 72c] | 1740 nM
33 | O=C(c1cccc(Cc2n[nH]c(=O)c3ccccc23)c1)N1CCC(OC2CCCC2)CC1 [Compound 37, 4-(3-(4-(cyclopentyloxy)piperidine-1-carbonyl)benzyl)phthalazin-1(2H)-one] | 5 nM
34 | CCOC1CCN(C(=O)c2cc(Cc3n[nH]c(=O)c4cccc(OC)c34)ccc2F)CC1 [Compound 126b, 4-(3-(4-ethoxypiperidine-1-carbonyl)-4-fluorobenzyl)-5-methoxyphthalazin-1(2H)-one] | 6 nM
35 | O=C(c1cc(Cc2n[nH]c(=O)c3ccccc23)ccc1F)N1CCC(OC(CF)CF)CC1 [Compound 29, 4-(3-(4-(1,3-difluoropropan-2-yloxy)piperidine-1-carbonyl)-4-fluorobenzyl)phthalazin-1(2H)-one] | 3 nM
